Results taken from PMC8850586.
These are yes or no findings as the source states them, for the method shown. For part of these data: Binding seen in cells or lysates may run through a third protein. Some binding calls cover weakened binding; strength is not graded here. Tags and fused reporters may be left off the sequences shown.

The chains behind the UniProt entries cited, without tags or fusion partners.
UniProt P10644: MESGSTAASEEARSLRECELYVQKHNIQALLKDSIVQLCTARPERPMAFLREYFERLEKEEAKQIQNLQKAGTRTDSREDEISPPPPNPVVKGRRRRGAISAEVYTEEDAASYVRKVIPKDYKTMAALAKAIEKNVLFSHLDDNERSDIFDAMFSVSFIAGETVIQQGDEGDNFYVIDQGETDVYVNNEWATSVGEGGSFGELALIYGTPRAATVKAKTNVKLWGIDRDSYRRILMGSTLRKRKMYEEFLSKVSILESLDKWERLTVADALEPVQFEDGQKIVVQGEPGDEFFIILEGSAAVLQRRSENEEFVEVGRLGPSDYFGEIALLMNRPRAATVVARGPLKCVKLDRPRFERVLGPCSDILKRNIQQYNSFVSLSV
UniProt P49841: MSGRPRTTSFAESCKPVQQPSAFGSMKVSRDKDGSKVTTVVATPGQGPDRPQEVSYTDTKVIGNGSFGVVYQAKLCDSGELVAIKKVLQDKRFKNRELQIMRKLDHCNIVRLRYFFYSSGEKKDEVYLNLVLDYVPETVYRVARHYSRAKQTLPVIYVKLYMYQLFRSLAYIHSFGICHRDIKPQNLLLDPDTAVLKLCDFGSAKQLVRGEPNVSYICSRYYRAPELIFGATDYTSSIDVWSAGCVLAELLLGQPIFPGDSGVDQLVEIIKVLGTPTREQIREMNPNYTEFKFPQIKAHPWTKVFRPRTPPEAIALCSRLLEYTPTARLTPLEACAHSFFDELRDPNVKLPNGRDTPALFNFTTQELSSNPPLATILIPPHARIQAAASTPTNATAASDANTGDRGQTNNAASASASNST

Tests used:
His-PRKAR1a [1] = molecular target: His-PRKAR1a (UniProt P10644); test: ELISA; His-PRKAR1α held on nickel-coated 8-well strips, Myc-HK2; disruptor (FMP-API-1 0-1000 µM, or RIAD) added; bound Myc-HK2 detected with anti-Myc-HRP; both purified
His-PRKAR1a [2] = molecular target: His-PRKAR1a (UniProt P10644); test: ELISA; His-PRKAR1a (50 nM) held on nickel-coated 96-well plates overnight at 4 °C; Myc-HK2 0.25-64 nM, 2 h, room temperature; detected with anti-Myc-HRP; G6P (0-100 µM) added for the last 30 min in the inhibition panel; both purified
His-PRKAR1a [3] = molecular target: His-PRKAR1a (UniProt P10644); test: ELISA; His-PRKAR1a (50 nM) held on nickel-coated plates, then Myc-HK2 (32 nM, 2 h) or buffer, then GST-GSK3β (0-64 nM, 2 h); detected with anti-GST-HRP; G6P (0-1000 µM) added for the last 30 min in the inhibition panel; both purified
GST-GSK3β = GST-GSK3β (UniProt P49841); test: ELISA; GST-GSK3β (50 nM) held on glutathione-coated 96-well plates overnight at 4 °C; Myc-HK2 0.25-64 nM, 2 h, room temperature; detected with anti-Myc-HRP; G6P (0-100 µM) added for the last 30 min in the inhibition panel; both purified
[4] = molecular target: myc-tagged PRKAR1a (regulatory subunit 1a of protein kinase A) (human) (UniProt P10644); test: co-IP; HEK293-HK2-HA cells transfected with a myc-tagged protein, 2 h in glucose-free medium with 10 mM glucose or 2-DG; immunoprecipitation with anti-myc, immunoblot with anti-HA or anti-PP2A; IP buffer 50 mM Tris-Cl pH 8.0, 0.5% NP-40, 150 mM NaCl
[5] = molecular target: myc-GSK3β (glycogen synthase kinase 3 beta), wild type (human) (UniProt P49841); test: as above

Measured: binding

B1: Myc-HK2 (enzyme, UniProt P52789 1-917)
chain: MIASHLLAYFFTELNHDQVQKVDQYLYHMRLSDETLLEISKRFRKEMEKGLGATTHPTAAVKMLPTFVRSTPDGTEHGEFLALDLGGTNFRVLWVKVTDNGLQKVEMENQIYAIPEDIMRGSGTQLFDHIAECLANFMDKLQIKDKKLPLGFTFSFPCHQTKLDESFLVSWTKGFKSSGVEGRDVVALIRKAIQRRGDFDIDIVAVVNDTVGTMMTCGYDDHNCEIGLIVGTGSNACYMEEMRHIDMVEGDEGRMCINMEWGAFGDDGSLNDIRTEFDQEIDMGSLNPGKQLFEKMISGMYMGELVRLILVKMAKEELLFGGKLSPELLNTGRFETKDISDIEGEKDGIRKAREVLMRLGLDPTQEDCVATHRICQIVSTRSASLCAATLAAVLQRIKENKGEERLRSTIGVDGSVYKKHPHFAKRLHKTVRRLVPGCDVRFLRSEDGSGKGAAMVTAVAYRLADQHRARQKTLEHLQLSHDQLLEVKRRMKVEMERGLSKETHASAPVKMLPTYVCATPDGTEKGDFLALDLGGTNFRVLLVRVRNGKWGGVEMHNKIYAIPQEVMHGTGDELFDHIVQCIADFLEYMGMKGVSLPLGFTFSFPCQQNSLDESILLKWTKGFKASGCEGEDVVTLLKEAIHRREEFDLDVVAVVNDTVGTMMTCGFEDPHCEVGLIVGTGSNACYMEEMRNVELVEGEEGRMCVNMEWGAFGDNGCLDDFRTEFDVAVDELSLNPGKQRFEKMISGMYLGEIVRNILIDFTKRGLLFRGRISERLKTRGIFETKFLSQIESDCLALLQVRAILQHLGLESTCDDSIIVKEVCTVVARRAAQLCGAGMAAVVDRIRENRGLDALKVTVGVDGTLYKLHPHFAKVMHETVKDLAPKCDVSFLQSEDGSGKGAALITAVACRIREAGQR
binds: His-PRKAR1a [1] | His-PRKAR1a [2] | His-PRKAR1a [3] | GST-GSK3β

B2: HA-tagged HK2 (rat hexokinase 2) stably expressed in HEK293 cells (enzyme, UniProt P27881 1-917)
chain: MIASHMIACLFTELNQNQVQKVDQFLYHMRLSDETLLEISRRFRKEMEKGLGATTHPTAAVKMLPTFVRSTPDGTEHGEFLALDLGGTNFRVLRVRVTDNGLQRVEMENQIYAIPEDIMRGSGTQLFDHIAECLANFMDKLQIKEKKLPLGFTFSFPCHQTKLDESFLVSWTKGFKSSGVEGRDVVDLIRKAIQRRGDFDIDIVAVVNDTVGTMMTCGYDDQNCEIGLIVGTGSNACYMEEMRHIDMVEGDEGRMCINMEWGAFGDDGTLNDIRTEFDREIDMGSLNPGKQLFEKMISGMYMGELVRLILVKMAKAELLFQGKLSPELLTTGSFETKDVSDIEEDKDGIEKAYQILMRLGLNPLQEDCVATHRICQIVSTRSASLCAATLAAVLWRIKENKGEERLRSTIGVDGSVYKKHPHFAKRLHKAVRRLVPDCDVRFLRSEDGSGKGAAMVTAVAYRLADQHRARQKTLESLKLSHEQLLEVKRRMKVEMEQGLSKETHAVAPVKMLPTYVCATPDGTEKGDFLALDLGGTNFRVLLVRVRNGKRRGVEMHNKIYSIPQEVMHGTGEELFDHIVQCIADFLEYMGMKGVSLPLGFTFSFPCQQNSLDQSILLKWTKGFKASGCEGEDVVTLLKEAIHRREEFDLDVVAVVNDTVGTMMTCGYEDPHCEVGLIVGTGSNACYMEEMRNVELVDGEEGRMCVNMEWGAFGDNGCLDDLRTVFDVAVDELSLNPGKQRFEKMISGMYLGEIVRNILIDFTKRGLLFRGRISERLKTRGIFETKFLSQIESDCLALLQVRAILRHLGLESTCDDSIIVKEVCTVVARRAAQLCGAGMAAVVDKIRENRGLDNLKVTVGVDGTLYKLHPHFAKVMHETVRDLAPKCDVSFLESEDGSGKGAALITAVACRIREAGQR
binds: [4] | [5]
